Test results as given in paper PMC9177837.
Results are given in words; binding and its absence hold for the method and conditions named. In cells and extracts the contact can be indirect. Some entries that bind do so weakly or less than the wild type.

Key:
[1] = target: MET WT (MET plasmid) (UniProt P08581); experiment: co-IP; MET overexpressed in HepG2-WT and HepG2-MET-KO cells; MET immunoprecipitated, immunoblot of endogenous PTP4A1 and p-SHP2 (Fig. 7a)
[2] = target: MET (human (endogenous in HepG2)) (UniProt P08581); experiment: co-IP; endogenous proteins; HepG2-WT lysate immunoprecipitated with anti-MET antibody on Dynabeads Protein G, immunoblot; cells untreated or treated with r-LECT2 (0, 5, 10, 50 ng/mL, 6 h)
[3] = target: MET WT (MET plasmid) (UniProt P08581); experiment: co-IP; HepG2-MET-KO cells transfected with MET WT, MET Y1349F and/or PTP4A1 plasmid, 48 h; lysates immunoprecipitated with anti-MET antibody, immunoblot (Fig. 8b); also MET-transfected cells treated with 50 ng/mL r-LECT2 and/or 10 ng/mL HGF for 1 h (Fig. 8d)
[4] = target: MET Y1349F (UniProt P08581); experiment: as above

Binder	binding [1]	binding [2]	binding [3]	binding [4]
PTP4A1 (enzyme, UniProt Q93096 1-173) MARMNRPAPVEVTYKNMRFLITHNPTNATLNKFIEELKKYGVTTIVRVCEATYDTTLVEKEGIHVLDWPFDDGAPPSNQIVDDWLSLVKIKFREEPGCCIAVHCVAGLGRAPVLVALALIEGGMKYEDAVQFIRQKRRGAFNSKQLLYLEKYRPKMRLRFKDSNGHRNNCCIQ	binds	binds	binds	
PTP4A1 (overexpressed from the PTP4A1 plasmid) (enzyme, UniProt Q93096 1-173) MARMNRPAPVEVTYKNMRFLITHNPTNATLNKFIEELKKYGVTTIVRVCEATYDTTLVEKEGIHVLDWPFDDGAPPSNQIVDDWLSLVKIKFREEPGCCIAVHCVAGLGRAPVLVALALIEGGMKYEDAVQFIRQKRRGAFNSKQLLYLEKYRPKMRLRFKDSNGHRNNCCIQ			binds	no binding
